From article PMC9723945
Where two headings read alike, the source gives them in different places. These are yes or no findings as the source states them, for the method shown. Binding seen in cells or lysates may run through a third protein. Some results given as binding are weak or reduced against the parent protein; the word gives no strength. Sequences can lack the tags named with a protein.

T1: HA-tagged B1ΔNT (927-1584) (human) (UniProt O14514)
T1 sequence: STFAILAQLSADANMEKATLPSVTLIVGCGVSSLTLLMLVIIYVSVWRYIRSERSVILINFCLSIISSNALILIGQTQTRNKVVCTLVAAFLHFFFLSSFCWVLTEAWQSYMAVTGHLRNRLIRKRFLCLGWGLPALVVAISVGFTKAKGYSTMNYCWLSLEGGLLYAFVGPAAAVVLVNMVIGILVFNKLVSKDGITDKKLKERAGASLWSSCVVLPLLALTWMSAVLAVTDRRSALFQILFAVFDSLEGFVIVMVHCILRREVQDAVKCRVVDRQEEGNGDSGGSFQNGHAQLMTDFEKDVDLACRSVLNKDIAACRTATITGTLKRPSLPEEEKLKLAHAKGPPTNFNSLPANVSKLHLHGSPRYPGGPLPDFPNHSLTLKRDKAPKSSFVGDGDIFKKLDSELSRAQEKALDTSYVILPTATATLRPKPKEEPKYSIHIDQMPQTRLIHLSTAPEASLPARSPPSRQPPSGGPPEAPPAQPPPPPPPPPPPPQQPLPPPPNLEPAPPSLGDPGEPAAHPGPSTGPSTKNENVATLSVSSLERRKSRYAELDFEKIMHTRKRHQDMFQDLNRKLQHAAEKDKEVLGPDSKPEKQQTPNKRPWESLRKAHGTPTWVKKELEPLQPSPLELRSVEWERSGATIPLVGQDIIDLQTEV

T2: His/myc-tagged B1ΔCT (1-1200) (human) (UniProt O14514)
T2 sequence: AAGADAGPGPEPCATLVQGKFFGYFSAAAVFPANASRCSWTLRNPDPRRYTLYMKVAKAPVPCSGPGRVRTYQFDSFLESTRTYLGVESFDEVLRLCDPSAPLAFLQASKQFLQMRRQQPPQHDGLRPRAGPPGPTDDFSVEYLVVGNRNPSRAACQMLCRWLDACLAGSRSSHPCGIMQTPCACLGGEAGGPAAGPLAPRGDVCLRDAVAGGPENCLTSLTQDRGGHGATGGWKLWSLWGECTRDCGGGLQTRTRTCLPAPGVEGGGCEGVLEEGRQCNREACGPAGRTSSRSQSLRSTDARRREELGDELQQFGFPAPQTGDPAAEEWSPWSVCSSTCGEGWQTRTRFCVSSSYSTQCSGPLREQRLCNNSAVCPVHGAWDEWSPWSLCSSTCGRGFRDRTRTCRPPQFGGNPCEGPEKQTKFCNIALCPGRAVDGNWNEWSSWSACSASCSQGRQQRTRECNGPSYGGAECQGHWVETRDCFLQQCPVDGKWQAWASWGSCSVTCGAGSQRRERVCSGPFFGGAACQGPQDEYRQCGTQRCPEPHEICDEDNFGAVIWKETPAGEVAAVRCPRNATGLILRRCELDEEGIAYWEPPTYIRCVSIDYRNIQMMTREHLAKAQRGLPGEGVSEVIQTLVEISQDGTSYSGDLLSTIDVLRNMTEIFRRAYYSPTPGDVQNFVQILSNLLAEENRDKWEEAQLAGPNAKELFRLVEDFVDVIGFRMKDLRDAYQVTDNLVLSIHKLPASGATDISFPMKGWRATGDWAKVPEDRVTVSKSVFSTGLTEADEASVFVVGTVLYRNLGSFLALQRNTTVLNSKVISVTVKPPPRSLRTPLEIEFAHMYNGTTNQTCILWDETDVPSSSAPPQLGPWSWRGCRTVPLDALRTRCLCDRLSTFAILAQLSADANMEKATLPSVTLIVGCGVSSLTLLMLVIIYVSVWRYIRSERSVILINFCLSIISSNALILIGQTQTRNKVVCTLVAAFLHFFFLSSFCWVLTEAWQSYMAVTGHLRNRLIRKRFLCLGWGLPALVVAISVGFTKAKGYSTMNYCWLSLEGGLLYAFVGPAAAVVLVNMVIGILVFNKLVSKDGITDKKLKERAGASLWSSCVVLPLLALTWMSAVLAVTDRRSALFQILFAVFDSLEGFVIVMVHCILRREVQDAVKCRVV

T3: myc-tagged B1-NTF (1-927) (human) (UniProt O14514)
T3 sequence: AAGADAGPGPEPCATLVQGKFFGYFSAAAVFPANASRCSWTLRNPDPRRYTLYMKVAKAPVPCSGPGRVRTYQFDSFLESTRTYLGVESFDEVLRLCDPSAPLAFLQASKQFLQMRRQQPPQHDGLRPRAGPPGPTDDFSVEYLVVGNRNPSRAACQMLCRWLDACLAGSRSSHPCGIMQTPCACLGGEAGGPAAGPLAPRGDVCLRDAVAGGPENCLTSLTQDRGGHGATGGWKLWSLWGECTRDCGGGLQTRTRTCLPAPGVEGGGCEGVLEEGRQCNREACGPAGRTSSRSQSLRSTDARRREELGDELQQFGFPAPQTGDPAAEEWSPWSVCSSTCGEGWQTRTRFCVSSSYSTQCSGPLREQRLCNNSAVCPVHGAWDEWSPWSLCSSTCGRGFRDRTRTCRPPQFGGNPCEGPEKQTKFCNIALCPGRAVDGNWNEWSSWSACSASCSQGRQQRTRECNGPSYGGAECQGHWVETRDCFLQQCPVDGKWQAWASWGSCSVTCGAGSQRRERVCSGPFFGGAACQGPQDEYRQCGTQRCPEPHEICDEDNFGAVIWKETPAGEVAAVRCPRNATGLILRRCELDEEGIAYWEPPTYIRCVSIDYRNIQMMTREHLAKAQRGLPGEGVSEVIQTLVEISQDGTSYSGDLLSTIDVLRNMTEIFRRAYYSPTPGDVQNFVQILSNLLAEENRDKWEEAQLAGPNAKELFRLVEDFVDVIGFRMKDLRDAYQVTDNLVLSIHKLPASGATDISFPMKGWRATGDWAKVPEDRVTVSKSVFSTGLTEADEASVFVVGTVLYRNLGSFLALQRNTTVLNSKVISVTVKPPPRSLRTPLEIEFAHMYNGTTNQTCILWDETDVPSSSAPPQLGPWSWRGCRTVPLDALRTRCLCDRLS


Columns and labels:
Test in all cases: co-IP; HEK293T cells co-transfected, 48 h; solubilised in 150 mM NaCl, 25 mM Hepes pH 7.2, 1 mM EDTA, 1% Triton X-100 overnight at 4 °C; anti-HA or anti-Myc agarose beads overnight at 4 °C, washed 3x; Western blot; B1FL with B1ΔCT tested without and with coexpressed ATP11A
[1] = target: T1, HA-tagged B1ΔNT (927-1584) (human)
[2] = target: T2, His/myc-tagged B1ΔCT (1-1200) (human)
[3] = target: T3, myc-tagged B1-NTF (1-927) (human)
[4] = target: T2, His/myc-tagged B1ΔCT (1-1200) (human); remark: listed apart in the source
[5] = target: T3, myc-tagged B1-NTF (1-927) (human); remark: listed apart in the source

Row | Molecule | binding [1] | binding [2] | binding [3] | binding [4] | binding [5]
1 | Brain-specific angiogenesis inhibitor 1, full-length (B1FL) (from UniProt O14514 31-1584) (receptor) | binds | binds | no binding | – | –
2 | HA-ATP11A (phosphatidylserine flippase ATP11A) (enzyme, UniProt P98196 1-1134) MDCSLVRTLVHRYCAGEENWVDSRTIYVGHREPPPGAEAYIPQRYPDNRIVSSKYTFWNFIPKNLFEQFRRVANFYFLIIFLVQLIIDTPTSPVTSGLPLFFVITVTAIKQGYEDWLRHKADNAMNQCPVHFIQHGKLVRKQSRKLRVGDIVMVKEDETFPCDLIFLSSNRGDGTCHVTTASLDGESSHKTHYAVQDTKGFHTEEDIGGLHATIECEQPQPDLYKFVGRINVYSDLNDPVVRPLGSENLLLRGATLKNTEKIFGVAIYTGMETKMALNYQSKSQKRSAVEKSMNAFLIVYLCILISKALINTVLKYMWQSEPFRDEPWYNQKTESERQRNLFLKAFTDFLAFMVLFNYIIPVSMYVTVEMQKFLGSYFITWDEDMFDEETGEGPLVNTSDLNEELGQVEYIFTDKTGTLTENNMEFKECCIEGHVYVPHVICNGQVLPESSGIDMIDSSPSVNGREREELFFRALCLCHTVQVKDDDSVDGPRKSPDGGKSCVYISSSPDEVALVEGVQRLGFTYLRLKDNYMEILNRENHIERFELLEILSFDSVRRRMSVIVKSATGEIYLFCKGADSSIFPRVIEGKVDQIRARVERNAVEGLRTLCVAYKRLIQEEYEGICKLLQAAKVALQDREKKLAEAYEQIEKDLTLLGATAVEDRLQEKAADTIEALQKAGIKVWVLTGDKMETAAATCYACKLFRRNTQLLELTTKRIEEQSLHDVLFELSKTVLRHSGSLTRDNLSGLSADMQDYGLIIDGAALSLIMKPREDGSSGNYRELFLEICRSCSAVLCCRMAPLQKAQIVKLIKFSKEHPITLAIGDGANDVSMILEAHVGIGVIGKEGRQAARNSDYAIPKFKHLKKMLLVHGHFYYIRISELVQYFFYKNVCFIFPQFLYQFFCGFSQQTLYDTAYLTLYNISFTSLPILLYSLMEQHVGIDVLKRDPTLYRDVAKNALLRWRVFIYWTLLGLFDALVFFFGAYFVFENTTVTSNGQIFGNWTFGTLVFTVMVFTVTLKLALDTHYWTWINHFVIWGSLLFYVVFSLLWGGVIWPFLNYQRMYYVFIQMLSSGPAWLAIVLLVTISLLPDVLKKVLCRQLWPTATERVQTKSQCLSVEQSTIFMLSQTSSSLSF | – | – | – | binds | binds
